Publication PMC12136788
The other results are listed elsewhere or left out.

T1: UNK ZnF1-3 (human, UniProt Q9C0B0 31-174)
T1 sequence: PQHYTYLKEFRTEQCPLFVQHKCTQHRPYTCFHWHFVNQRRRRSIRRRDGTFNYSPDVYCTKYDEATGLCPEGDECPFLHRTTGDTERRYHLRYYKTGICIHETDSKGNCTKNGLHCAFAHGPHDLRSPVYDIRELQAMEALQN

B1: chr8:11667275:11667276:+_ENSG00000079459_ENST00000525900|hu_mus|FALSE|FALSE (ssRNA)
RNA: GGGAGUUCUACAGUCCGACGAUCGUCCUUCUCCUUGCUCUCAGUGAACCGCCACUCUGGGUCAUAGAGGAAAGUGUGGAAGUUACACAGCAGUGGGAUCUUCUUCUCCACACUGAUGCUCAUGUCAUCCUCCACUGUAUCCAGCAACAGAGGAUUGAGCAUCA
B2: chr4:4237396:4237397:-_ENSG00000132406_ENST00000382753|hu_hu|motif|central (ssRNA)
RNA: GGGAGUUCUACAGUCCGACGAUCUAAAACUUCACAUUAGGAAAUGCUAAAAACCCAGUAAUGUACAUAAUGAUAAAAUCGGAAGUGAUGAGAAAACAUAAAAUAUUUUCAUUUGGUCCUGUCACCUAACAAAACUAUCAUAAACAACAGAGGAUUGAGCAUCA
B3: chr18:9315019:9315020:-_ENSMUSG00000024286_ENSMUST00000053917|mus_hu|FALSE|FALSE (ssRNA)
RNA: GGGAGUUCUACAGUCCGACGAUCUAAGAUGCCAAAGUUUUCCAAGCUCACAUGGGAAGAAGGUGAAACACAGACCUGCUGCUGCCACUGGCCUCCCAGAGACUUGAAAAGGGAAACAACUCAGAAACCUGUCACUGUGACCUACAACAGAGGAUUGAGCAUCA
B4: chr10:24632488:24632489:+_ENSMUSG00000019984_ENSMUST00000092646|mus_mus|motif|central (ssRNA)
RNA: GGGAGUUCUACAGUCCGACGAUCAGGUGCUGGAGACCCGCUGUUGAGGGCCUGGGGUGGCACUGCCGGCUCCAUCUUGCGGAUGUGCGUGAUGAAUCGAAGACGAAGCUUUAAAGCCGGCUUUAAAUUACAGAUAAUCUUCUCCAACAGAGGAUUGAGCAUCA
B5: chr12:42180722:42180723:-_ENSMUSG00000036295_ENSMUST00000043884|mus_hu|mus_mus_mus_hu_True|58_58 (ssRNA)
RNA: GGGAGUUCUACAGUCCGACGAUCCUGUAGGAGAAGAAUCUGUGUGUUAGCUGGCAAUCUGGCUGGGAAAGUUAAAAGCCCUAAAUCAUUACAAUCCACUGUAGAUGCUUCCAUAUAAAUGGAUCUGGGUGUAAACCAAGGCCUCAACAGAGGAUUGAGCAUCA
B6: chr17:46962767:46962768:-_ENSMUSG00000036568_ENSMUST00000040624|mus_mus|FALSE|FALSE (ssRNA)
RNA: GGGAGUUCUACAGUCCGACGAUCAACAGGCACGUGAGUCACCCCGAUAGGCUGCAGUGUCUGACCUGAGUAAUUAGAAACAUUAGAAGCCUGAGUAAAGGAUGCUGAUGAAGAAGGAUGAAGCUGGGCUUGUGCAAACUGUUGCAACAGAGGAUUGAGCAUCA
B7: chr11:106642694:106642695:-_ENSMUSG00000020719_ENSMUST00000021062|mus_mus|motif|central (ssRNA)
RNA: GGGAGUUCUACAGUCCGACGAUCAAUCUGGAAUUAUAAAAUCCAUUGUCUCUAACUUCUUCCCAUACAAACAGAUCAUCCGGAGGGCCUUCUGAGUUCCUCUCCUAAAUCCAGGAAUGGGAAGUAGUCAACUUUCCUUGUGUACAACAGAGGAUUGAGCAUCA
B8: chr2:90738878:90738879:-_ENSMUSG00000005510_ENSMUST00000005647|mus_hu|FALSE|FALSE (ssRNA)
RNA: GGGAGUUCUACAGUCCGACGAUCUCCAAACAUGUCCCAGAUCUCCCUUUCAUACCAGUUGGCUGCCUUGAACACAGAGACAGCAGACUCAAUGGGCGUCAGCUCAUCUGUGUAGGUCUUCACACGGAUCCGUGAGUUGAAGCGCAACAGAGGAUUGAGCAUCA
B9: chr2:112102183:112102184:+_ENSMUSG00000027133_ENSMUST00000028553|mus_mus|motif|central (ssRNA)
RNA: GGGAGUUCUACAGUCCGACGAUCUGCUCGUUGAGGUAAUAUUGGAGAAACAUAACUGCCCUCAGCAAAAAGACACACGUACGGCCGCCAGCCGCGUUUACUCCGAGUGCGCCGCUUCAAUCGCGUGCGCCAACAACCUUCCAGCAACAGAGGAUUGAGCAUCA
B10: chr1:39494564:39494565:+_ENSG00000168653_ENST00000372967|hu_hu|hu_hu_hu_mus_True|38_48 (ssRNA)
RNA: GGGAGUUCUACAGUCCGACGAUCAUGCAUUCGCCUCAUCGUUUUGUACCGAAGCAAGCACUCUUCGAAGUCAUCGAACUCUAUCUUGCACUCUUUCUCUGCCCGAGUCCCACCGAUCCCGUGUGCACACUCUAUCCACUCUUUCAACAGAGGAUUGAGCAUCA
B11: chr7:97322993:97322994:+_ENSMUSG00000039361_ENSMUST00000049537|mus_mus|motif|central (ssRNA)
RNA: GGGAGUUCUACAGUCCGACGAUCUGUUGUAGCCCUGCUUGCAGCUGUGGAAUCUUUGAUUUUCUUUCCUUCCAAGGAAGCGGAAUGUUGUUCUAAAGCAUCAAGAAGACUGCUGGGGGCCUGUGAAAGAUCUGGAAUAUCUCCCAACAGAGGAUUGAGCAUCA
B12: chr17:64801638:64801639:+_ENSG00000154229_ENST00000413366|hu_mus|hu_hu_hu_mus_False|88_88 (ssRNA)
RNA: GGGAGUUCUACAGUCCGACGAUCUAUAUAUAUAUAUACAUAUGUACACAUAUGUAGUAAAACCCUAGUUAAACGUGUAAAGUAGCCAUUCAUUUUUAAAAUUACAUCUACAUUAAAAAAUUAAUAUAUCUGAUAGAGUGCCAGCAACAGAGGAUUGAGCAUCA
B13: chrX:129263551:129263552:-_ENSG00000156709_ENST00000287295|hu_mus|FALSE|FALSE (ssRNA)
RNA: GGGAGUUCUACAGUCCGACGAUCGGAUGGAAAAGUGCUUGUGUAUUCCACGAUUGGGAUUCAAUCUUCAUGAAUGUUGAAGAGUUUAGCUACUUCAUUGAGAUCUUCAUGUUGCUCACCGUCCUUAAUGAUCUUCCUUGCAAUCAACAGAGGAUUGAGCAUCA
B14: chr8:117878989:117878990:-_ENSG00000164754_ENST00000297338|hu_hu|hu_hu_hu_mus_True|8_108 (ssRNA)
RNA: GGGAGUUCUACAGUCCGACGAUCCCAGAGGCCCUCUUUUACUGAGGACAAAAUGUGCGUAGAACAUUUUUCUUAUUUGCUAUGAAAUAAGAAGAAACCUGGAUCUCGGCGGGGAGCCGGGAGGGGUUGGGUGGCCCGGGAGGGCAACAGAGGAUUGAGCAUCA

Each binder was assayed against T1, UNK ZnF1-3 (assay: nsRBNS (natural sequence RNA bind-n-seq); RBNS binding buffer (assumed for nsRBNS): 25 mM Tris pH 7.5, 150 mM KCl, 3 mM MgCl2, 0.01% Triton X-100, 500 ug/ml BSA, 20 U/ml SUPERase-In, 4 C; UNK is unkempt and MSI1 is Musashi-1; names of the RNAs are library labels; protein concentration not given here; high values mean tight binding).

Binder	binding signal [enrichment R]
B1	0.832
B2	1.05
B3	0.856
B4	0.91
B5	1.17
B6	1.41
B7	0.446
B8	0.632
B9	0.953
B10	0.683
B11	1.12
B12	1.94
B13	0.568
B14	1.26
